# Assay results as given in PMC10668032.
# This is one part of the list. At the low end of the ranking the order means little.
# Target: SIX1 homeodomain (reference allele) (UniProt Q15475)
# Experiment: universal protein binding microarray
# Conditions: Universal all-10-mer PBM (8x60K, AMADID 030236), 300 nM GST-tagged protein, Alexa Fluor 488 anti-GST; buffer, salt, pH and temperature not stated; high values mean tight binding; most listed sequences are background and not binding sites; double strand, one strand shown
row,Sequence,binding signal [E-score]
1,CCCGCTGC,-0.102
2,CCTATTAG,-0.00208
3,CACGATCG,0.165
4,AAGAAGAG,-0.0709
5,TGGTAGAA,-0.121
6,ATGGAAAC,-0.123
7,ACCTCACC,-0.147
8,AGCCTAGC,-0.201
9,ATTTGCCC,-0.108
10,AGGAACCG,-0.15
11,CTTATAAA,-0.0423
12,GGGGCACC,-0.161
13,ACGGCTCG,-0.0315
14,GCGAGTAA,-0.14
15,CGTCAGAA,-0.139
16,GGGTCATA,0.158
17,AGTCCCTA,-0.066
18,CGACCGCA,-0.113
19,CTACTAAA,-0.0105
20,CGTCCATC,-0.0967
21,AGGGCAAA,-0.16
22,GCTAGGGA,-0.012
23,CCGCAAAG,-0.0667
24,AATAGACG,0.0219
25,GCGGGTGA,0.00477

row,Sequence,binding signal [E-score]
1,CAGACTAC,-0.215
2,AATGACAG,-0.104
3,ACACCTGA,0.281
4,CGGATATC,0.473
5,GTTGCGTA,-0.0364
6,TTACAGAA,-0.203
7,TATCAAGA,0.302
8,CGAGTGTA,0.0016
9,AGACTCGC,-0.286
10,AAACAATC,-0.0138
11,AAGACTTC,-0.206
12,AAGCCGGC,-0.0743
13,GCGACTAC,-0.172
14,AGGCAGGA,0.109
15,GCCGATAC,0.42
16,ATTTGTAC,-0.0801
17,TGACCGCA,-0.141
18,AGTACACC,0.209
19,CCTTGGAG,-0.0126
20,CAGCCAGA,-0.125
21,ACCTATCT,0.195
22,ATCGGTTA,0.265
23,CACGTTTA,-0.163
24,AGGTGTTG,0.236
25,ATAACACG,0.0214

row,Sequence,binding signal [E-score]
1,TAACTCCA,-0.162
2,CTGAGCAG,-0.00301
3,GAATTCGA,-0.088
4,TAACCACA,-0.162
5,AGTCCTCC,-0.183
6,ACAACTCA,-0.00655
7,ATGAGCCA,0.173
8,ACTCGAGC,-0.103
9,ACAGGCAC,-0.208
10,CAAACTAA,-0.0314
11,CCTACTGC,-0.195
12,GCTTCCTA,-0.129
13,ATATTGAG,0.0845
14,ATAGACCC,0.033
15,CCAAATTA,-0.109
16,ATTCGTCC,-0.0292
17,GGCTACCA,0.0377
18,CCTCCTAA,-0.124
19,GCACTCCC,-0.149
20,AAACTCTG,-0.237
21,CTTCCATA,-0.165
22,ACTGGTGA,-0.077
23,CGATTAAA,0.156
24,ACATGCCA,-0.213
25,ATTAATGC,0.0182

row,Sequence,binding signal [E-score]
1,AGGGACCG,-0.0883
2,GGGCATAA,-0.047
3,CTTCGAAA,-0.23
4,ATTCGCAG,-0.146
5,TTGAGCAA,-0.22
6,CATTCGGA,0.109
7,ACGCCTTG,-0.124
8,CCCTATCC,0.359
9,CACCCAGC,-0.121
10,GCTACCAC,-0.183
11,AGGCAATG,0.00178
12,CTAAGTAC,-0.0688
13,CGAATGCG,-0.0164
14,ACAGTGAG,-0.0157
15,GGAGTCCC,-0.129
16,CAATCACC,-0.0948
17,GTATCCCA,0.388
18,ACTGTCCG,-0.223
19,CACTACCC,0.09
20,CAGGGATA,0.328
21,CCGAAGAC,0.03
22,ACATTGGC,-0.255
23,CCTCCTCG,0.036
24,AGGCCCAG,-0.272
25,TGAACAAA,-0.18

row,Sequence,binding signal [E-score]
1,AAGACATC,-0.159
2,CCGGAGAG,-0.066
3,TCTTAAGA,-0.0679
4,CCTCCCGA,-0.0516
5,CTGTATAC,0.338
6,CGGGCCAA,-0.0721
7,CGGATTAA,0.351
8,AGGGGGCA,-0.138
9,AAGCACGC,-0.273
10,GAGTAGAC,0.214
11,CTGTGAAA,-0.044
12,CGTGTGGC,-0.167
13,CTTATTTC,-0.161
14,CTTTCCCA,-0.0878
15,CAGAAGCC,-0.134
16,GTCCCGAA,-0.307
17,CATACTCA,0.152
18,ACAAGGGC,-0.266
19,TAATATCA,0.34
20,AACATTCG,-0.127
21,ATCCTCTA,0.244
22,CCCTCGTA,0.132
23,AAGAAAAG,-0.254
24,CGCTCCGA,0.0143
25,CTAGTCGA,-0.0544

row,Sequence,binding signal [E-score]
1,AACGGTAT,0.234
2,AATTCGAT,-0.00161
3,CATGCCCG,-0.105
4,CCGTGGGC,-0.129
5,ACACAGGT,0.018
6,AGGTTCGC,-0.143
7,TCAGTGAA,-0.00662
8,GATTTTAC,-0.0191
9,CTGGGTAC,0.037
10,ACTTGCAG,-0.116
11,ACAACTAA,-0.114
12,ACCCCGTA,0.209
13,AGTAGAAG,0.0361
14,AGAGTTCG,-0.0999
15,GCTCAGAA,-0.0514
16,CCCTGCTC,0.0522
17,CCGGTCTA,0.129
18,CTGAGGGA,0.0462
19,AACCAGAG,-0.242
20,CAGGACCC,-0.261
21,GGCGACAA,-0.251
22,GTATACAC,0.371
23,AGCCAGGC,-0.197
24,ATAATCCG,0.308
25,ATGGGCAG,-0.0749

row,Sequence,binding signal [E-score]
1,AGGCAAGG,-0.274
2,AGAAAAAT,-0.124
3,CACTTATA,0.00662
4,CTCCCATA,0.0813
5,GAATGAAA,-0.157
6,CCCCCTTC,0.104
7,CCCGATTC,0.0319
8,GGCAAACA,-0.24
9,CAGACTCA,-0.153
10,CACTGATA,0.404
11,AAGTTCGT,-0.333
12,TAGCACTA,0.0499
13,ACCGACTC,0.0656
14,ACAATAAT,0.0945
15,AGTGCAAC,-0.0317
16,ACATTCCA,-0.253
17,CAAAGGTG,-0.00643
18,AGTCTAGC,-0.209
19,CACCCACC,-0.0957
20,CTCCACCC,0.0237
21,CCGTAGCG,-0.199
22,AGGCCTCA,-0.186
23,GATAGAGC,-0.0719
24,ACGACAAT,-0.105
25,AGTGCGCC,-0.294

row,Sequence,binding signal [E-score]
1,AGCCACAC,0.119
2,CTCTTAGA,-0.133
3,GATGATCA,0.315
4,ATTGGCCA,-0.171
5,CAATCGAA,0.0197
6,AACGGCTC,0.0218
7,ACCGTACC,0.014
8,GTCAGCGA,-0.143
9,CCTACAAA,-0.111
10,AACAATCT,0.0515
11,AAAACACA,-0.191
12,ACTGCCCA,-0.215
13,TATATAAA,0.197
14,AAATATGT,-0.132
15,GATCAAGC,0.312
16,CTGCCGCC,-0.208
17,ACATTGAT,0.154
18,ATGTAAAC,0.128
19,CATGTGAA,-0.165
20,ATCAATGC,0.163
21,AAGAAGGG,0.115
22,ACGCAGTA,0.034
23,AGATCACA,0.255
24,CCCACCGA,-0.0724
25,AAGATTTA,-0.0691

row,Sequence,binding signal [E-score]
1,CCCTGTAC,0.0945
2,GATCAAAC,0.193
3,ATAGGTAG,0.0875
4,CTGTTCGC,0.00536
5,AGCGACCA,-0.328
6,CCAAATCA,-0.136
7,ATTTGATG,-0.0146
8,AAACGAGG,-0.124
9,CTTGGCGA,-0.0968
10,GCACGGTA,0.122
11,AAGGTCCG,-0.0596
12,ACTTTGGA,-0.0601
13,ACGCCCGC,-0.102
14,ATCCAGGC,0.123
15,AGCGTTAG,-0.0882
16,AAGCTTAA,-0.109
17,ATTGGGCC,-0.215
18,ACAACGCA,-0.108
19,AAGATTAG,0.0218
